Among the data in the supplement of paper PMC4604168 (melanoma cell lines) are cell count values, retold here.

The list shows a part of the results. Most values come without repeats; read them as rough.

Some test systems named below: A101D; A2058; A375.
Holding throughout (test): cell count relative to DMSO control; melanoma cells; higher = more viable cells
Holding throughout (conditions): library dose: standard library concentration; 72 h
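Also: cells treated in 1,536-well plates, then fixed and DAPI-stained, with nuclei counted from automated high-throughput microscope images.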

`CC(C)C[C@H](NC(=O)[C@H](Cc1ccccc1)NC(=O)c1cnccn1)B(O)O` [Bortezomib] + Cn1nnc2c(C(N)=O)ncn2c1=O [temozolomide] (first compound 0.005 µM, partner dose 10 µM): the cell count was 8.38% with A101D, 14.9% in the assay on A2058 and 81.5% with A375.
The like results for `Cc1cn(-c2cc(NC(=O)c3ccc(C)c(Nc4nccc(-c5cccnc5)n4)c3)cc(C(F)(F)F)c2)cn1` [nilotinib] + C[C@]1(c2nc3c(C(N)=O)cccc3[nH]2)CCCN1 [Veliparib] (first compound 1 µM, partner dose 7 µM) were, in that order, 96.3%, 79% and 88.3%.
Taken in the same sequence, the figures for `COc1ccc(C2=N[C@@H](c3ccc(Cl)cc3)[C@@H](c3ccc(Cl)cc3)N2C(=O)N2CCNC(=O)C2)c(OC(C)C)c1` [Nutlin-3] + NC(=O)Nc1cc(-c2cccc(F)c2)sc1C(=O)N[C@H]1CCCNC1 [AZD7762] (first compound 0.5 µM, partner dose 0.1 µM) were 50.4%, 65.5% and 42%.
Taken in the same sequence, the figures for `COc1ccc(C2=N[C@@H](c3ccc(Cl)cc3)[C@@H](c3ccc(Cl)cc3)N2C(=O)N2CCNC(=O)C2)c(OC(C)C)c1` [Nutlin-3] + CN(c1ncccc1CNc1nc(Nc2ccc3c(c2)CC(=O)N3)ncc1C(F)(F)F)S(C)(=O)=O [PF562271] (first compound 0.5 µM, partner dose 0.4 µM) were 58.7%, 74.6% and 65.1%.
For the compound `Cc1cn(-c2cc(NC(=O)c3ccc(C)c(Nc4nccc(-c5cccnc5)n4)c3)cc(C(F)(F)F)c2)cn1` [nilotinib] + CCN(CC)CCNC(=O)c1c(C)[nH]c(/C=C2\C(=O)Nc3ccc(F)cc32)c1C [sunitinib] (first compound 1 µM, partner dose 2 µM), the cell count was found to be 65.6% in the assay with A101D, 81% with A2058 and 109% in the assay on A375.
The like results for `Cc1cn(-c2cc(NC(=O)c3ccc(C)c(Nc4nccc(-c5cccnc5)n4)c3)cc(C(F)(F)F)c2)cn1` [nilotinib] + CO[C@@H]1[C@H](N(C)C(=O)c2ccccc2)C[C@H]2O[C@]1(C)n1c3ccccc3c3c4c(c5c6ccccc6n2c5c31)C(=O)NC4 [Midostaurin] (first compound 1 µM, partner dose 0.4 µM) were, in that order, 74.9%, 72.8% and 76.3%.
Taken in the same sequence, the figures for `CC(C)C[C@H](NC(=O)[C@H](Cc1ccccc1)NC(=O)c1cnccn1)B(O)O` [Bortezomib] + O=C(O)c1ccc2c(c1)nc(Nc1cccc(Cl)c1)c1ccncc12 [CX4945] (first compound 0.005 µM, partner dose 2 µM) were 19.8%, 10% and 74.7%.
The like results for `COc1ccc(C2=N[C@@H](c3ccc(Cl)cc3)[C@@H](c3ccc(Cl)cc3)N2C(=O)N2CCNC(=O)C2)c(OC(C)C)c1` [Nutlin-3] + CC(C)(C)c1cnc(CSc2cnc(NC(=O)C3CCNCC3)s2)o1 [SNS-032] (first compound 0.5 µM, partner dose 0.05 µM) were, in that order, 57.8%, 75.9% and 81.6%.
Consider `CC(C)C[C@H](NC(=O)[C@H](Cc1ccccc1)NC(=O)c1cnccn1)B(O)O` [Bortezomib] + Cc1nc(Nc2ncc(C(=O)Nc3c(C)cccc3Cl)s2)cc(N2CCN(CCO)CC2)n1 [dasatanib] (first compound 0.005 µM, partner dose 0.02 µM), for which the cell count amounted to 20% with A101D, 12.4% in the assay on A2058 and 69.3% with A375.
Taken in the same sequence, the figures for `Cc1cn(-c2cc(NC(=O)c3ccc(C)c(Nc4nccc(-c5cccnc5)n4)c3)cc(C(F)(F)F)c2)cn1` [nilotinib] + COc1ccc(Cl)c(Nc2nc3ccccc3nc2NS(=O)(=O)c2cccc(NC(=O)C(C)(C)N)c2)c1 [XL147] (first compound 1 µM, partner dose 4 µM) were 102%, 89.2% and 112%.
The like results for `CC(C)C[C@H](NC(=O)[C@H](Cc1ccccc1)NC(=O)c1cnccn1)B(O)O` [Bortezomib] + Nc1ccn([C@@H]2O[C@H](CO)[C@@H](O)C2(F)F)c(=O)n1 [gemcitabine] (first compound 0.005 µM, partner dose 0.002 µM) were, in that order, 14.7%, 13.6% and 85.1%.
Consider `Cc1cc(Nc2cc(N3CCN(C)CC3)nc(/C=C/c3ccccc3)n2)n[nH]1` + Cn1c(Nc2ccc(C(F)(F)F)cc2)nc2cc(Oc3ccnc(-c4ncc(C(F)(F)F)[nH]4)c3)ccc21 [CHIR265] (first compound 0.2 µM, partner dose 0.4 µM), for which the cell count is 64.7% in the assay on A101D, 69.4% in the assay on A2058 and 78.8% with A375.
